In patent CN110922480A (BEIJING KANGPUMEITE INNOVATION MEDICINE TECH CO LTD, dated 2020):

Target: T1, 人C3dg-生物素 (human, UniProt P01024 partial chain, biotin label (site not stated))
T1 construct: domain: C3dg; Captured on a BIAcore streptavidin sensor chip; also called 生物素标记的C3dg
Assay: SPR (BIAcore 3000), C3dg-biotin captured on a streptavidin chip

T1 sequence (P01024 955-1303 limits assumed): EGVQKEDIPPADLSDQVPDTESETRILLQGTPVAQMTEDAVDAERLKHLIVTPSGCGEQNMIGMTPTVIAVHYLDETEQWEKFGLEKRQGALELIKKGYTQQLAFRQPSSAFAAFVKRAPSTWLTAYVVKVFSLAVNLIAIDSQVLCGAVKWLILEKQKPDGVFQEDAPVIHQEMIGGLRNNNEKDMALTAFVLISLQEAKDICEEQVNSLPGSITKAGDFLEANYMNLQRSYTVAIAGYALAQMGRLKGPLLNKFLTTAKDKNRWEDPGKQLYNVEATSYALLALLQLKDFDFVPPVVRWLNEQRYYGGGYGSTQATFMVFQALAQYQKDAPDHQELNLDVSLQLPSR

| Binder | binding result |
| --- | --- |
| 抗C3d单链抗体-DAF融合蛋白 (ScFv-DAF) (other, Secreted from CHO-K1 cells, about 55 kDa; also called C3d-ScFV-DAF) MASYELTQPPSVSVAPGQTARITCSGDALGDKYASWYQQKPGQAPVLVIYEDSKRPSGIPERFSGSNSGNTATLTISGTQAEDEADYYCQSQAGAVVGVFGGGTKLTVLGSGGSTITSYNVYYTKLSSSGS[skipping about 100 residues]GSVNHGVDFWGQGTLVTVSSAGGGSGGGGSDCGLPPDVPNAQPALEGRTSFPEDTVITYKCEESFVKIPGEKDSVICLKGSQWSDIEEFCNRSCEVPTRLNSASLKQPYITQNYFPVGTVVEYECRPGYRREPSLSPKLTCLQNLKWSTAVEFCKKKSCPNPGEIRNGQIDVPGGILFGATISFSCNTGYKLFGSTSSFCLISGSSVQWSDPLPECREIYCPAPPQIDNGIIQGERDHYGYRQSVTYACNKGFTMIGEHSIYCTVNNDEGEWSGPPPECR | binds |
| 抗C3d单链抗体 VL-Linker-VH (scFv, Selected from a human phage library, then expressed in CHO cells and purified, about 26 kD; also called ScFv; 人源抗补体C3d分子的单链抗体) scFv: MASYELTQPPSVSVAPGQTARITCSGDALGDKYASWYQQKPGQAPVLVIYEDSKRPSGIPERFSGSNSGNTATLTISGTQAEDEADYYCQSQAGAVVGVFGGGTKLTVLGSGGSTITSYNVYYTKLSSSGS[skipping about 100 residues]GSVNHGVDFWGQGTLVTVSSA | binds |
